In PubChem BioAssay AID1346428 (National Center for Advancing Translational Sciences (NCATS), 2018):
“And” between values parts separate entries of the source, which are not always exact repeats. Equal values may be shown once. About 1,200 (2.5%) of roughly 48,000 compounds were called active. Roughly 2% stayed inconclusive and do not appear here.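 How the source made its calls: active means activation of at least 60% and not above a set upper limit (about 1 call in 100 departs from these limits); inconclusive means activation of 40% to 60%, or above that upper limit; inactive means activation under 40%.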 The list shows a part of the results.

The compounds below were run against Probable G-protein coupled receptor 32 (Homo sapiens) (UniProt O75388) (assay: qHTS for Agonists of Human Resolvin D1 Receptor DRV1). Details: CHO-K1 GPR32 beta-arrestin PathHunter luminescence, 90 min; at 76.9 µM; hits give high values; zero percent set by DMSO-only wells.
Method in brief: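 Using DMSO wells as EC0, agonist-induced signal was taken as chemiluminescence from beta-Gal reconstituted upon beta-arrestin recruitment to GPR32 in CHO-K1 cells after 90 min compound treatment.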
Further: 0% is about no effect.

Chain of UniProt O75388 (O75388 whole entry, looked up): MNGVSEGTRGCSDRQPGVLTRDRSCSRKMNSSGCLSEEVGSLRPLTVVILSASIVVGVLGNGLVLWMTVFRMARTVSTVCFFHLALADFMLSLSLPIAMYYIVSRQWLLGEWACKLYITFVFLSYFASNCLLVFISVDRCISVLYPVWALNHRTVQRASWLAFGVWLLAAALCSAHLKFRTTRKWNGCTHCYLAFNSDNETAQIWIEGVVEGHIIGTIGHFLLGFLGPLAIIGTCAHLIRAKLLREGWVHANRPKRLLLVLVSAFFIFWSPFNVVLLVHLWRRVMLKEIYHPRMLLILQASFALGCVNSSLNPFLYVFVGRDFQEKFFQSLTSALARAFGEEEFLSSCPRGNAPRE

activation, active:
CC(=O)c1ccc(N2CCN(C(=O)C3CCN(S(=O)(=O)c4ccc(Br)s4)CC3)CC2)cc1 86.5%
Clc1cccc(-n2ncc3c(NC4CCCCC4)ncnc32)c1 109%

activation, inactive:
O=C(NCCC1=CCCCC1)c1ccc2c(c1)sc1nc(-c3ccc(F)cc3)cn12 -15.7%
COc1ccc(NC(=O)c2cccc(N3CCCS3(=O)=O)c2)c(OC)c1 2.79%
CC(C)Cn1cc(NC(=O)NCc2cccc(Cl)c2)c2ccccc2c1=O -77.6%
CCN(CC)c1ccc(NC(=O)CN2CCN(CC(=O)Nc3ccc(Cl)cc3)CC2)cc1 -17.7%
Cc1ccc2oc(C(=O)Nc3sc4c(c3C(=O)NCC3CCCO3)CCC4)cc(=O)c2c1 (stereo not given) 9.3%
Nc1nc(N)c(N=O)c(OCC2CCCCC2)n1 -11.6%
COc1cc(OC)c(C2CC(=O)Nc3ccc4ccccc4c32)cc1OC (stereo not given) 6.88%
COCCNC(=O)Cn1nc(-c2ccccc2)c2ccccc2c1=O -5.65%
CC(NC(=O)c1cc2c(=O)n3ccccc3nc2n(C(C)C)c1=N)c1ccccc1 (stereo not given) 7.27%
CC(NC(=O)Cn1c(=O)oc2cc(S(=O)(=O)N3CCCCCC3)ccc21)c1ccccc1 (stereo not given) -23.6%
COC(=O)c1ccccc1NC(=O)c1nc(-c2ccc(C)cc2)n2c1CCCCC2 8.93%
Cc1ccc(CCNS(=O)(=O)c2ccc3c(c2)C(C(C)C)C(=O)N3)cc1 (stereo not given) 13.2%
COc1cc(NC(=O)CN2C(=O)CCc3cc(Br)ccc32)cc(OC)c1OC 15.9%
COc1cccc(Cn2c(=O)n(CC3CCC(C(=O)NC(C)C)CC3)c(=O)c3sccc32)c1 (stereo not given) 13.7%
Cc1cn(C)c(CC(=O)NCc2ccc(Cl)cc2)c1C(=O)O -5.95%
Cc1cccc(OC(=O)CSc2nnc(-c3ccc4c(c3)OCO4)o2)c1C -8.31%
Cc1ccc(C2=NN(CC(=O)NCCc3ccccc3)C(=O)CC2)cc1 -12.1%
CC(=O)N1c2ccccc2C(=O)C1N1CCN(c2cccc(Cl)c2)CC1 (stereo not given) -0.0391%
Cc1cccc(-c2noc(-c3cc(C(C)C)[nH]n3)n2)c1 -11.8%
COCCCNC(=O)c1cn(CC(C)C)c(=O)c2c1c1ccccc1n2C -12.2%
CCOc1ccc(OCC)c(NC(=O)c2nnn(Cc3cc(Br)ccc3OC)c2N)c1 -7.56%
COCCn1c(CNC(=O)c2cccc(N(C)C)c2)nc2cccnc21 -5.12%
COc1cc(OC)c(NS(=O)(=O)c2cc3c(cc2C)NC(=O)CO3)cc1Cl 2.93%
Cc1ccc(NC(=O)c2nc(S(C)(=O)=O)ncc2N(Cc2ccco2)Cc2ccccc2F)c(C)c1 -7.2%
Cc1nc2scc(C)n2c(=O)c1S(=O)(=O)Nc1cccc(O)c1 2.74%
CCN(Cc1ccccc1)C(=O)CCS(=O)(=O)c1cc2c(cc1Cl)NC(=O)CO2 -6.34%
Cc1ccc(C)c(NC(=O)Nc2nnc(N(CC(C)C)CC(C)C)s2)c1 -27.2%
CCOC(=O)c1ccc(CN(Cc2ccc(F)cc2)S(=O)(=O)c2ccc(F)cc2)cc1 -30.4%
O=C(Nc1ccc(C(F)(F)F)cc1)c1cc(S(=O)(=O)NC2CCCCCC2)ccc1F 5%
Cc1nc2ccccn2c(=O)c1CCN1CCC(C(=O)c2ccc(F)cc2)CC1 17.4% and 4%
CCCOc1ccc(C2c3c(oc4ccccc4c3=O)C(=O)N2c2ccc(C)cn2)cc1OCC (stereo not given) -7.32%
CCOC(=O)c1c(C)[nH]c(C)c1S(=O)(=O)N1CCC(C(=O)N2CCN(c3cccc(C)c3)C(C)C2)CC1 (stereo not given) 3.96%
Cc1ccccc1S(=O)Cc1ccc(C(=O)NC2CCCCCC2)o1 (stereo not given) 2.23%
CCOc1cccc2sc(NC(=O)c3ccc(S(=O)(=O)N4CCCc5ccccc54)cc3)nc12 -20.2%
Cc1ccc(CCNC(=O)c2ccc3c(=O)n(-c4ccc(C)cc4)c(=O)[nH]c3c2)cc1 24.5%
Cc1ccccc1N1CCN(CCc2nnc3n2CCCC3)CC1 8.86%
O=C(CNS(=O)(=O)c1cccs1)N1CCN(c2ccccc2Cl)CC1 -10.9%
COc1ccc2oc(=O)c(-c3nc(-c4cc(OC)c(OC)c(OC)c4)no3)cc2c1 -6.24%
Cc1ccc(C(=O)Nc2ccc3nc(SCC(=O)N4CCc5ccccc54)sc3c2)cc1 -4.45%
Cc1ccc2c(CNCc3cccc(Cl)c3)c(C(=O)O)n(Cc3ccc(F)cc3Cl)c2c1 1.51%
Cc1cc2oc(C(=O)Nc3sc4c(c3C(=O)NCc3ccco3)CCC4)cc(=O)c2cc1C -10.2%
O=C(Cn1cc(SCc2cccc(F)c2)c2ccccc21)N1CCCC1 -24.1%
CCC(=O)c1ccc2c(c1)N(CCCN(C)C)c1ccccc1S2 2.29% and -21.3%
CC(CNC(=O)CCn1c(=O)c2cccn2c2ccc(F)cc21)c1ccccc1 (stereo not given) -12.1%
CCOC(=O)c1ccccc1NC(=O)CSc1c(C)cnc2c1c(=O)n(C)c(=O)n2C -8.12%
COCCCNC(=O)c1ccc(CSc2nc3cccnc3n2Cc2ccc(OC)cc2)cc1 -9.6%
Cc1nc2c(c(C)c1CCC(=O)N1CCN(c3ccccc3)CC1)c(=O)n(C)c(=O)n2C 2.59%
O=C(Nc1cccc(Cl)c1Cl)c1cc(S(=O)(=O)N2CCCCC2)ccc1F -9.39%
COc1cccc(NC(=O)c2c(-c3ccc(C)cc3)nnc3ccccc23)c1 7.01%
COc1ccc(CCNC(=O)C2CC(=O)N(CCc3ccccc3)C2)cc1OC (stereo not given) 1.54%
O=C(CCNNC(=O)c1ccncc1)NCc1ccccc1 -48% and -14.4%
Cc1ccc(C)c(Cn2c(=O)n(-c3ccc(Cl)cc3)c(=O)c3c4c(sc32)CCC4)c1 -0.328%
COc1ccc(OC)c(S(=O)(=O)NCCc2sc(-c3cccnc3)nc2C)c1 -19.9%
CC(=O)OC1=CN(Cc2ccccc2)S(=O)(=O)c2ccccc21 -11.1%
CCc1nn(CC(=O)Nc2ccc(C)c(F)c2)c(=O)c2cc3cc(C)ccc3n12 -2.99%
COc1ccc(OC)c(CNC(=O)C2CCN(S(=O)(=O)N3CCCCC3)CC2)c1 -8.53%
Cc1ccc(-c2onc(C)c2C)cc1S(=O)(=O)NCc1cccs1 -9.69%
COc1ccccc1N1CCN(c2nc3ccc(C(=O)c4ccccc4)cc3n3c(C)nnc23)CC1 -1.13%
Cc1cccc(C)c1Nc1c(-c2ccccc2Cl)nc2cnccn12 10.7%
CCCN(Cc1cccs1)C(=O)Nc1cc(C)ccc1OC -18.6%
O=C(c1ccc2c(c1)N(Cc1ccc(Cl)cc1)C(=O)c1ccccc1S2(=O)=O)N1CCCCCC1 -12.4%
Cc1ccc(-c2cn3c(n2)sc2cc(C(=O)NCCC4=CCCCC4)ccc23)c(C)c1 -10.7%
CCOc1ccc(S(=O)(=O)NCC(c2ccc(N(C)C)cc2)N2CCCC2)cc1 (stereo not given) -22.3%
O=C(COc1ccc(F)cc1)Nc1ccc2nc(SCC(=O)N3CCCC3)sc2c1 -8.24%
COc1ccccc1N1CCN(C2C(=O)c3ccccc3N2C(C)=O)CC1 (stereo not given) -23.9%
CCCn1c(=O)c2[nH]c(C3CCCC3)nc2n(CCC)c1=O 8.85%
Cc1cccc(C)c1NC(=O)c1cc(S(N)(=O)=O)c(Cl)cc1O -27.8%
CCOc1ccc(-c2nnc(SCC(=O)Nc3ccccc3C(F)(F)F)o2)cc1 20.6%
Cc1ccc(N2C(=O)C(CC(=O)Nc3ccc(F)cc3)N(CCC3=CCCCC3)C2=O)cc1 (stereo not given) 16.9%
O=C(NCC(c1cccs1)S(=O)(=O)c1cccs1)c1ccccc1F (stereo not given) 13.1%
Cc1ccc(S(=O)(=O)N(CC(=O)Nc2ccc(C(C)C)cc2)Cc2ccccc2)cc1 -0.0716%
CC(=O)N1c2ccc(S(=O)(=O)NCC3CCC(C(=O)NC(C)(C)C)CC3)cc2CC1C (stereo not given) -3.15%
Cc1ccccc1NC(=O)CCC(=O)N1CCSc2ccccc21 -14.3%
Clc1ccccc1N1CCN(c2ncnc3c2c(-c2ccccc2)cn3-c2ccccc2)CC1 -32.3%
CCN(CC)c1nn2c(=O)c(C(=O)NCc3ccc(OC)cc3OC)cnc2s1 10.8%
CCOC(=O)c1[nH]c2ccccc2c1NC(=O)c1ccccc1OCC -25.5%
Cc1ccc(-n2nc3ccc(NC(=O)c4oc5ccccc5c4C)cc3n2)cc1 7.92%
COc1ccccc1CNC(=O)c1ccccc1NC(=O)c1nsc2ccccc12 -3.99%
O=C(Nc1ccc2c(c1)CCCN2C(=O)c1cccs1)c1cccc(C(F)(F)F)c1 -23.1%
CCOc1ccc(-c2nnc(SCC(=O)NC3CCCC3)nc2-c2ccc(OCC)c(OC)c2)cc1OC -6.82%
CCN(C(=O)c1noc2c1COc1ccc(C)cc1-2)c1cccc(C)c1 -6.68%
O=C(Nc1ccccc1F)c1nc(S(=O)(=O)Cc2ccccc2F)ncc1Cl -25.7%
Cc1cccc(N2CCN(C(=O)c3cc(S(=O)(=O)N4CCC(C)CC4)cn3C)CC2)c1C -28.9%
